Screen size: about 16,000 compounds; about 120 (0.75%) were called active. Not shown: some 4% with an inconclusive outcome. The call rests on the fitted dose curve; in most records, active means well fitted inhibition curve with a large enough effect; inconclusive means small, poorly fitted or top-dose-only effect; inactive means no such curve, though single readings can be large or run the other way. The list shows a part of the results.
molecular target: Rap guanine nucleotide exchange factor 3 (Homo sapiens) (UniProt O95398); test: Validation qHTS for antagonist of cAMP-regulated guanine nucleotide exchange factor 3 (EPAC1); conditions: EPAC1 Rap1B-BODIPY-GDP exchange, fluorescence; series mostly up to 150 µM; activity change, negative = inhibition: at the top concentration;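 further: plate controls were DMSO for no effect and ATA control for full effect; nearly all actives have a fitted effect of over 75% in size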
UniProt O95398, sequence (O95398 whole entry, looked up): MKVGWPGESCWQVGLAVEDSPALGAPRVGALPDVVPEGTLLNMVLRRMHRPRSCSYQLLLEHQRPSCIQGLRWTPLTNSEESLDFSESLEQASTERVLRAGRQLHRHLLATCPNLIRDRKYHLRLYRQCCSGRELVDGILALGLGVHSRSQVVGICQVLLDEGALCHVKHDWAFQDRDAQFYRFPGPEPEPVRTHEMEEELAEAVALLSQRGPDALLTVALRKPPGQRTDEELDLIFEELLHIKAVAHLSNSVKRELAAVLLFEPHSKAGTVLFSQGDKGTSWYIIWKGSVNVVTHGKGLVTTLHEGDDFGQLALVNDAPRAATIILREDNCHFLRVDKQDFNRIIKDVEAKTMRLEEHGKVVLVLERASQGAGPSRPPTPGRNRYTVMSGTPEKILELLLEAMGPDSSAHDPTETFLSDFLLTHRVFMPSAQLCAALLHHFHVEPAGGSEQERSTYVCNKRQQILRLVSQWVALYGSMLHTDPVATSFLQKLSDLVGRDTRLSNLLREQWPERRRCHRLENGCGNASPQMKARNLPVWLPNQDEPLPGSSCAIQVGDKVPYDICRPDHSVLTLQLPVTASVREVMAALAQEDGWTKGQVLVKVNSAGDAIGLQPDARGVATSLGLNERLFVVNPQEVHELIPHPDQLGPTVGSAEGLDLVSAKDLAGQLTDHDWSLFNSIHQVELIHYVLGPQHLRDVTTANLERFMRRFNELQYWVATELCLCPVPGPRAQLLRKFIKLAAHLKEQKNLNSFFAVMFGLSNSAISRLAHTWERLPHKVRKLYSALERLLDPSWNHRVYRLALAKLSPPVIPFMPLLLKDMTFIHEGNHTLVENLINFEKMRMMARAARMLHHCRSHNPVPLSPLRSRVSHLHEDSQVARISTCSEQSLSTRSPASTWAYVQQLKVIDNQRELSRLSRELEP
Method in brief: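 Nucleotide exchange followed as fluorescence loss when BODIPY-GDP leaves Rap1B (480 nm excitation, 540 nm emission), read at 5 min intervals over 30 min. Reaction: 100 nM EPAC1, 250 nM RAP1B-BODIPY-GDP, 50 uM GDP; ATA and DMSO define normalization.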

Compound	activity change, negative = inhibition
CN(C)CCCSC(=N)N	inactive
COc1ccc(-c2cc(=O)c3c(O)cc(O[C@@H]4OC(COC5OC(C)C(O)C(O)[C@@H]5O)C(O)C(O)C4O)cc3o2)cc1 (some centres undefined)	inactive: 3.76%
Cn1cnnc1Sc1ccc(CN2CCOc3ccc(C4=CCCCC4)cc3C2)o1	inactive: 8.23%
COc1ccc(-n2c(=O)c(-c3cccc(C#N)c3)nc3cnc(N4CCNCC4)nc32)cc1	inactive: 8.74%
CNc1ncnc2ccc(-c3ccccc3CN(C)C)cc12	inactive: 13.2%
COc1ccc(-c2coc3cc(O)ccc3c2=O)c(OC)c1O	inactive: 19.4%
NCCNCCNCCN	inactive: -3.71%
COc1ccccc1CNc1nc(-c2ccccc2CN(C)C)nc2ccccc12	inactive: 5.55%
COc1ccccc1C1OC(=O)CC1C(=O)OC[C@@H]1CCCN2CCCCC12 (some centres undefined)	inactive: -1.78%
Cc1onc(-c2c(F)cccc2Cl)c1C(=O)N[C@@H]1C(=O)N2[C@@H]1SC(C)(C)[C@@H]2C(=O)O	inactive
COc1ncc2nc(CCc3ccccc3)c(=O)n(CCc3ccccc3)c2n1	inactive: 15.6%
Cn1c2c(c(=O)c3ccccc31)C[C@@H](O)C(C)(C)O2	inactive: -13%
CCCCOC(=O)C(=O)Nc1cccc(-c2nn[nH]n2)c1	inactive: 22.6%
O=C(Nc1ccc(Cl)c(C(F)(F)F)c1)[C@@H]1CC=C[C@@H]2CCN(C3CC3)C(=O)[C@@H]21	inactive: 2.5%
CC1CC[C@@]2(OC1)OC1CC3C4CC=C5CC(O)CC[C@@]5(C)C4CC[C@]3(C)C1C2C (some centres undefined)	inactive: 1.86%
Nc1c(CC(=O)O)cccc1C(=O)c1ccc(Br)cc1	inactive: 15.9%
CCOC(=O)O[C@]1(C(=O)OCCl)CC[C@@H]2[C@H]3CCC4=CC(=O)C=C[C@]4(C)[C@@H]3[C@@H](O)C[C@@]21C	inactive: 30.1%
Cc1cc(C(=O)Nc2ccccc2-c2nc(CNC(=O)C3COc4ccccc4O3)c(C)o2)c(C)o1 (centres undefined)	inactive: 14.7%
NC[C@@H]1O[C@H](O[C@H]2[C@H](O)[C@H](O[C@H]3[C@@H](O)[C@H](N)C[C@H](N)[C@H]3O[C@H]3O[C@H](CN)[C@H](O)[C@H](O)[C@H]3N)O[C@@H]2CO)[C@@H](N)[C@@H](O)[C@@H]1O	inactive: 21.7% [at 39.6 µM]
OCCN1CCN(CCCN2c3ccccc3C=Cc3ccccc32)CC1	inactive
COCc1c(C(=O)N2CC3CCC2C3)cnn1-c1nccc(-c2ccccc2OC)n1 (centres undefined)	inactive: 4.87%
Cc1[nH]c2ccccc2c1/C=C/c1ccnc2ccccc12	inactive: 13.8%
COC(=O)C[C@H]1c2cc(C(F)(F)F)ccc2S(=O)(=O)N1Cc1ccc(OC)cc1	inactive: -4.26%
CCC(CCC(C)C1CCC2C3CCC4CC(O)CC[C@@]4(C)C3CC[C@@]12C)C(C)C (some centres undefined)	inactive: 18%
C[C@@H]1CC[C@@]2(OC1)O[C@H]1C[C@H]3[C@@H]4CC[C@H]5C[C@@H](O)CC[C@]5(C)[C@H]4CC(=O)[C@]3(C)[C@H]1[C@@H]2C	inactive: 23.6% [at 75.8 µM]

Compound	activity change, negative = inhibition
CCCS(=O)(=O)NCc1c(C)ncc2c1CCN(C(=O)c1c(F)ccc(F)c1F)C2	inactive: 19.8%
CCCC(=O)NCCc1c(I)[nH]c2ccc(OC)cc12	inactive: 0.548%
COc1ccc2c(c1)-c1nc(-n3ncc(C(=O)NCC4CCCN(C)C4)c3C3CC3)ncc1CC2 (centres undefined)	inactive: 15.1%
CN1C(=O)OC(C)(C)C1=O	inactive: 8.63% [at 75.8 µM]
CC(=O)CCCCn1c(=O)c2c(ncn2C)n(C)c1=O	inactive
CCCCC/C=C\C/C=C\C/C=C\C/C=C\CCCC(=O)O[C@@H](CO)COC(=O)CCCCCCCCCCCCCCCCC	inactive: 8.85% [at 15.3 µM]
COCC(=O)N1CCC[C@@]2(CCN(c3ccccn3)C2)C1	inactive: 12.3%
Cn1cccc1C(=O)N1CCC2(CC1)CCN(c1ccncc1)CC2	inactive: 35.7%
CC(C)NC(=O)c1cn(C2CCCN(C(=O)c3cc4ccccc4oc3=O)C2)nn1 (centres undefined)	inactive: 1.04%
CN(C/C=C/c1ccccc1)Cc1cccc2ccccc12	inactive: -4.31%
O=c1c(-c2ccc(O)cc2)coc2cc(O)ccc12	inactive
COc1cccc(-c2cc(NCc3ccccc3)ncn2)c1	inactive: -12.9%
C[C@H](NC(CCc1ccccc1)C(=O)O)C(=O)N1CCC[C@H]1C(=O)O (some centres undefined)	inactive: 30.2%
CN(C)Cc1ccccc1-c1cc(NCc2cccs2)ncn1	inactive: 14.9%
CC(=O)OC1CC[C@]2(C)C(CC(OC(C)=O)[C@@]3(C)C4=CC(=O)OC(c5ccoc5)[C@]4(C)CCC23)C1(C)C (some centres undefined)	inactive: -3.51%
CN(C)c1cccc2ccccc12	inactive: 23.1%
CCCCC(CC)COS(=O)(=O)O (centres undefined)	inactive: -7.64%
CC(C)NC[C@H](O)COc1cccc2ccccc12	inactive
COc1ccc(C(=O)N2CCC3(CC2)CN(CC(C)C)C3)cc1	inactive: -0.473%
CCn1c(-c2ccccc2F)nc2cc(NC(C)=O)cc(C(=O)NC(c3ccccn3)C(F)(F)F)c21 (centres undefined)	inactive: 2.82%
C[C@H]1O[C@@H](n2cc(F)c(=O)[nH]c2=O)[C@H](O)[C@@H]1O	inactive: 24.3%
CCN1CCCC1CNC(=O)c1cnn(-c2nccc(-c3ccccc3OC)n2)c1-c1ccco1 (centres undefined)	inactive: 11.3%
O=[N+]([O-])c1nccn1CO[C@@H](CO)[C@H](O)CO	inactive: -6.73%
Cc1ccc(CNc2ncnc3sc(C(=O)N4CCCCC4c4cccnc4)c(C)c23)o1 (centres undefined)	inactive: -1.39%
